Laboratory results as given in patent US20230265179A1.
Residue numbers refer to the chain shown, from its start.

B1: CD40L-368 (antibody, V domains shown)
VH: [about 100 residues not written out]ERGDYYYYGMDVWGQGTLVTVSS
VL: DIQMTQSPSSLSASVGDRVTITCRASQSIGTFLNWYQQKPGKAPKLLIYGTSNLQSGVPSRFSGSGSGTDFTLTISSLQPEDFATYYCQQGYRTPLTFGGGTKVEIK
B2: CD40L-405 (antibody, V domains shown)
VH: [about 100 residues not written out]ERGDYYYYGMDVWGQGTLVTVSS
VL: B1 VL with S14Y, T31I, F32H, T51A, N53R, S56T, G91S, R93S, T94A
B3: CD40L-422 (antibody, V domains shown)
VH: [about 100 residues not written out]ERGDYYYYGMDVWGQGTLVTVSS
VL: B1 VL with I29V, G30S, T31R, G50A, T51A, N53T, S56P, G91S, R93E

What follows are binders tested against CD40L (UniProt P29965) (assay: flow cytometry, 100 nM IgG, CD40L over-expressing Expi293 cells over parent Expi293 cells).
UniProt P29965, sequence (P29965 whole entry): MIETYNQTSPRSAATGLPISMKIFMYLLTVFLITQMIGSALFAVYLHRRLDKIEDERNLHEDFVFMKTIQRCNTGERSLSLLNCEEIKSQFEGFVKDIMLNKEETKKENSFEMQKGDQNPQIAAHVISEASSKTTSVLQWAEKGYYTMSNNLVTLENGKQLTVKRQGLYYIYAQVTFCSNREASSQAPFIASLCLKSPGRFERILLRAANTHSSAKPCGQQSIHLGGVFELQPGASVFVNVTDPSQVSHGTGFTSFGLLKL
In the case of B1, the 100 nM FACS (MFI Ratio) is reported as 1.9 MFI ratio. Binder B2 has a 100 nM FACS (MFI Ratio) of 1.8 MFI ratio. B3 was tested, and the 100 nM FACS (MFI Ratio) was 1.8 MFI ratio.
